Results: the supplement of paper PMC7826260
Some of the results follow. One pool of 16,384 single-stranded DNAs met each Rep nickase domain in vitro for 1 h at 37 °C with 3 µM enzyme; only the middle of the 90-letter strands is printed. The score is log2 (uncut reads / reads without enzyme); strong cutting gives strongly negative numbers. There is no active / inactive call. The scaling is to total reads, so uncut sequences can rise above 0 when many others are cut.

What was measured:
Assay in all cases: uncleaved DNA left, log2 of reads against the no-enzyme library (log2 ratio); higher = less cleavage (more negative = more Rep cleavage of the k-mer); sequences stand for … in CTCGTCCG…ACCGGAGA
[1] = system: T1, Rep nickase domain of Muscovy duck circovirus
T1 sequence (protein, residues 1-111, tag omitted): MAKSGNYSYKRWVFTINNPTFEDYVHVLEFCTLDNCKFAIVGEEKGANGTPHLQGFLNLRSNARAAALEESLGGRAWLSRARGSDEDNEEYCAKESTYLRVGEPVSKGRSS
Procedure: (§1)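 A pool of 90-nt single-stranded DNAs with seven random bases just before the constant AC of the nick site (name = the seven bases) was cut by 3 µM recombinant His6-SUMO-tagged Rep nickase domain (300 nM DNA, 50 mM HEPES pH 8.0, 50 mM NaCl, 1 mM MnCl2, 1 h, 37 °C, three replicates). Uncut DNA was amplified and sequenced.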

[2] = system: T2, Rep nickase domain of banana bunchy top virus
T2 sequence (protein, residues 1-94, tag omitted): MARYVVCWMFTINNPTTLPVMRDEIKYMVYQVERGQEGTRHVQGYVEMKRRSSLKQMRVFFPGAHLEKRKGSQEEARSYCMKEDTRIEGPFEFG
Procedure: as §1

[3] = system: T3, Rep nickase domain of cabbage leaf curl virus
T3 sequence (protein, residues 1-116, tag omitted): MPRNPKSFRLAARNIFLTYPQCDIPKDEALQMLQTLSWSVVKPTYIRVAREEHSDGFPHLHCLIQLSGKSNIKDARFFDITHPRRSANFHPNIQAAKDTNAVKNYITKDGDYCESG
Procedure: as §1

[4] = system: T4, Rep nickase domain of chickpea chlorotic dwarf virus
T4 sequence (protein, residues 1-124, tag omitted): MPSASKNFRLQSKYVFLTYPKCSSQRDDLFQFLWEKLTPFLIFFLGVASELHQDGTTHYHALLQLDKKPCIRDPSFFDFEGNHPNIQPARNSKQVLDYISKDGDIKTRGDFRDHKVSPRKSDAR
Procedure: as §1

[5] = system: T5, Rep nickase domain of faba bean necrotic yellows virus
T5 sequence (protein, residues 1-98, tag omitted): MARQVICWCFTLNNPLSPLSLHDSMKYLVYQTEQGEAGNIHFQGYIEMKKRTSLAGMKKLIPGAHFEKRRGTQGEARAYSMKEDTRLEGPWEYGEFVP
Procedure: as §1

[6] = system: T6, Rep nickase domain of maize striate mosaic virus
T6 sequence (protein, residues 1-117, tag omitted): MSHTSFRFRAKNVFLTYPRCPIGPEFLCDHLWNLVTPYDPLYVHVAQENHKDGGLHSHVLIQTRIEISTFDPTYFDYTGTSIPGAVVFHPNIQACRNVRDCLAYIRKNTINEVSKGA
Procedure: as §1

[7] = system: T7, Rep nickase domain of porcine circovirus 2
T7 sequence (protein, residues 2-116, tag omitted): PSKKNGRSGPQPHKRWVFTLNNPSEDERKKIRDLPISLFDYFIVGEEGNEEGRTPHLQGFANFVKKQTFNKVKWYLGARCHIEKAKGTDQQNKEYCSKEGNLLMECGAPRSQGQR
Procedure: as §1

[8] = system: T8, Rep nickase domain of tomato yellow leaf curl virus
T8 sequence (protein, residues 1-136, tag omitted): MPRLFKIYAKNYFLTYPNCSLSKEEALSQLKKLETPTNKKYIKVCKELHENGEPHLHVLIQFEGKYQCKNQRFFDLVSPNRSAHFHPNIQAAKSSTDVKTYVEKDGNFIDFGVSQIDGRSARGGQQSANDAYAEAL
Procedure: as §1

[9] = system: T9, Rep nickase domain of wheat dwarf virus
T9 sequence (protein, residues 1-137, tag omitted): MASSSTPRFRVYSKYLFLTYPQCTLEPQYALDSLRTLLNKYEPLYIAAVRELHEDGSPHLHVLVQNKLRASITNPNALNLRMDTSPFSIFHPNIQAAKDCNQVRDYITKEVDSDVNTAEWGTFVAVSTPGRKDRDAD
Procedure: as §1

Sequence | uncleaved DNA left (log2) [1] | uncleaved DNA left (log2) [2] | uncleaved DNA left (log2) [3] | uncleaved DNA left (log2) [4] | uncleaved DNA left (log2) [5] | uncleaved DNA left (log2) [6] | uncleaved DNA left (log2) [7] | uncleaved DNA left (log2) [8] | uncleaved DNA left (log2) [9]
AAGTCTT | -2.59 | -3.21 | -0.253 | -2.46 | -3.05 | 0.512 | -4.19 | 0.0573 | -0.0683
AACCGCT | -0.0428 | -0.0603 | -0.451 | -1.71 | -0.0251 | -0.908 | -0.937 | -0.101 | -0.127
TTCACGG | -0.157 | -0.0305 | 0.499 | 1.53 | -0.106 | 2.11 | -0.00988 | -0.135 | 0.0147
GTGAGGC | 0.00715 | -0.0107 | 0.345 | 0.911 | -0.02 | 1.58 | 0.054 | 0.142 | 0.105
AACATGT | -0.0133 | 0.0231 | -0.292 | -0.933 | 0.0927 | -0.843 | -0.289 | 0.0402 | 0.0739
CGTATAC | 0.0891 | -0.018 | 0.00448 | -0.524 | 0.0558 | -0.393 | 0.0273 | -8.98e-05 | -0.00952
ATTCGCC | 0.0462 | 0.0645 | -0.232 | -0.505 | 0.0645 | -1.03 | 0.117 | 0.00619 | -0.0665
GAATTCC | 0.0146 | 0.127 | 0.0722 | 0.34 | -0.0394 | 1.67 | 0.195 | 0.103 | 0.0641
GGCGTCA | -0.164 | -0.0106 | 0.414 | 1.15 | -0.0962 | 1.6 | 0.0176 | -0.0702 | 0.00262
TTTGTTG | 0.0735 | -0.0565 | -0.688 | -0.799 | 0.00529 | -1.26 | 0.0725 | 0.000765 | -0.198
ATTAATC | 0.0234 | 0.045 | 0.146 | 0.0763 | 0.0702 | -0.684 | 0.0833 | 0.0707 | 0.101
GAGCCAT | -0.0143 | 0.115 | 0.7 | 1.51 | -0.0778 | 1.9 | 0.00507 | -0.0487 | 0.192
TCGGGCT | -0.026 | -0.149 | 0.212 | 0.324 | -0.0733 | 0.474 | 0.0106 | -0.125 | -0.0651
ATTACGC | 0.0177 | 0.0643 | -0.0324 | -0.837 | 0.0664 | -0.836 | 0.178 | 0.0721 | 0.00209
CGGGAAG | -0.00829 | -0.0566 | -0.168 | 0.314 | -0.169 | -0.181 | 0.225 | 0.0121 | 0.0249
GGGCCAA | -0.119 | 0.0445 | 0.856 | 2 | -0.154 | 2.22 | 0.19 | 0.0121 | 0.0731
CTTTAGA | 0.0103 | -0.0711 | -0.0483 | -0.403 | -0.0903 | -1.01 | 0.0118 | -0.0113 | -0.0355
TGACGAC | -0.153 | -0.0466 | 0.118 | 0.394 | -0.098 | 0.493 | -0.083 | -0.0304 | -0.075
GGACGGC | -0.122 | 0.0927 | 0.81 | 1.72 | -0.13 | 2.23 | 0.144 | -0.113 | 0.0634
TTCACTA | -0.066 | -0.0652 | 0.126 | -1.01 | 0.0416 | 0.233 | -0.144 | -0.0286 | 0.044
GTGCTTG | 0.0522 | 0.0107 | -0.112 | -0.0646 | -0.171 | -0.209 | -0.0605 | 0.00795 | -0.0784
ATCTACG | -0.124 | -0.111 | -0.892 | -0.487 | -0.0181 | -1.1 | 0.141 | -0.0882 | -0.19
AATTTAG | 0.0679 | -0.0244 | -0.865 | -0.506 | 0.0428 | -1.38 | 0.195 | 0.0184 | -0.029
GCTCGCC | 0.00718 | -0.0785 | 0.228 | 0.747 | -0.072 | 0.547 | 0.0732 | -0.0994 | -0.0386
CTAAGGC | -0.0298 | -0.0425 | -1.24 | -1.87 | -0.000445 | -0.667 | 0.156 | 0.0217 | -0.0414
CTAATCA | 0.0309 | 0.072 | 0.294 | -0.419 | -0.0118 | -0.107 | 0.0211 | 0.171 | 0.0746
AGACCGT | 0.144 | 0.0331 | 0.642 | 0.996 | 0.0848 | 1.41 | 0.115 | 0.0575 | 0.112
GCCCCCT | -0.0833 | 0.0155 | 0.0199 | -0.722 | -0.0244 | 0.113 | -0.269 | -0.0581 | -0.00835
TGTTAGG | 0.0745 | 0.158 | 0.443 | 1.28 | 0.16 | 1.62 | 0.22 | 0.117 | 0.198
TATTGAC | 0.0105 | 0.00895 | -0.198 | -0.433 | -0.0396 | -0.874 | 0.174 | 0.00491 | 0.0299
